# Data as given in PubChem BioAssay AID1030 (National Center for Advancing Translational Sciences (NCATS), 2008).
# Hit rate of the full screen: of about 220,000 compounds, about 16,000 (7.3%) were called active. The shares of active, inactive and inconclusive entries below differ from those in the screen. The call rests on the fitted dose curve; in most records, active means well fitted inhibition curve with a large enough effect (not every such curve was filed as active); inconclusive means small, poorly fitted or top-dose-only effect, or another doubt; inactive means no such curve, though single readings can be large or run the other way. No potency is given beside an inconclusive call; the fits are too rough.
# Biological target: Aldehyde dehydrogenase 1A1 (Homo sapiens) (UniProt P00352)
# Assay: qHTS Assay for Inhibitors of Aldehyde Dehydrogenase 1 (ALDH1A1);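 on activity, negative = inhibition: plate controls were no enzyme wells and a reference inhibitor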
# Conditions: Purified ALDH1A1, NADH fluorescence, propionaldehyde substrate; series mostly up to 75.3 µM
# Potency means the concentration at half of the fitted maximal effect; tags describe the fitted curve by direction and shape.
# UniProt P00352, sequence (P00352 whole entry, looked up): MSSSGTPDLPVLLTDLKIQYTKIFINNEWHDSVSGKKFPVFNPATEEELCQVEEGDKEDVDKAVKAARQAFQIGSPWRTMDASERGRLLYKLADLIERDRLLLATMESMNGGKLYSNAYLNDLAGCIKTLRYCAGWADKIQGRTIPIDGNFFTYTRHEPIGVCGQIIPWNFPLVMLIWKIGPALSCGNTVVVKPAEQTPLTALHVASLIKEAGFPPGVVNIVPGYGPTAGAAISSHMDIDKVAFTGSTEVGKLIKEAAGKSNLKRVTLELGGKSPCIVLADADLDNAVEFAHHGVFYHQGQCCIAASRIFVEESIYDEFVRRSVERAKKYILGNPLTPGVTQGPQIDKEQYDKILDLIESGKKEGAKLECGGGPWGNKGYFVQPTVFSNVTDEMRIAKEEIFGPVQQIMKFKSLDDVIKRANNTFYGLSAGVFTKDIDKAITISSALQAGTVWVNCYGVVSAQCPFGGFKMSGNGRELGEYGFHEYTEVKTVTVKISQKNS
SMILES,Potency,"activity, negative = inhibition"
Cc1ccc(NC(=O)C2CC=CCC2C(=O)N2CCCCC2)cc1 (centres undefined),inactive,–
NC1=C(c2ccc(F)cc2)C(=O)CS1,active: 20 µM,–
COc1cccc(/C=N/Nc2nc(Nc3ccccc3)nc(-n3nc(C)cc3C)n2)c1O,inactive,–
CCN1CCN(Cc2c(O)c(Cl)cc3c(C)cc(=O)oc23)CC1,"inconclusive [inhibitor, partial curve]",–
CN(C)S(=O)(=O)c1ccc(=S)[nH]c1,active: 1 µM,–
O=C(c1cc([N+](=O)[O-])ccc1Cl)N1c2ccccc2Sc2ccccc21,inactive,–
COc1ccc(S(=O)(=O)N(C)c2ccc(C(=O)N3CCOCC3)cc2)cc1,"inconclusive [inhibitor, single point]",–
Cc1cccc(N2CCN(Cc3nc(CC4CC4)no3)CC2)n1,inactive,–
CC(=O)c1cc2c(cc1NC(=O)CN1CCCCCC1)OCO2,"inconclusive [inhibitor, single point]",–
COC(=O)NCc1cccc(CNC(=O)OC)c1,inactive,–
Cn1c(C(=O)N2CCCC(C(=O)NCCCc3ccccc3)C2)cc2sccc21 (centres undefined),active: 14.1 µM,–
O=C(Nc1nnc(-c2ccccc2F)s1)C1CCN(S(=O)(=O)c2ccc(Cl)cc2)CC1,"inconclusive [inhibitor, single point]",–
O=Cc1cn(Cc2ccccc2)nc1-c1cccnc1,inactive,–
O=C(c1cc(-c2ccccn2)nc2c(Cl)cccc12)N1CCN(C(=O)C2CCCO2)CC1 (centres undefined),inactive,–
CCOC(=O)c1ccc(N2CCN(C(C)=O)CC2)c(NC(=O)c2cccnc2)c1,"inconclusive [inhibitor, partial curve]",–
Cc1cc(C)n(CCc2nc3c4ccccc4n(CC#N)c(=O)n3n2)n1,active: 11.2 µM,–
COC(CNC(=O)CSCc1nc(-c2ccc(SC)cc2)oc1C)OC,"inconclusive [inhibitor, single point]",–
Cc1cc(C)nc(Sc2c(C)n[nH]c2C)n1,inactive,–
O=C(N/C(=C\c1cccs1)C(=O)N1CCCCCC1)c1ccccc1,"inconclusive [inhibitor, partial curve]",–
Cc1ccc(-c2nc(SCC(=O)NCC3CCCO3)c(-c3ccc(C)cc3)[nH]2)cc1 (centres undefined),"inconclusive [inhibitor, single point]",–
Nc1nncn1C(=O)CCCN1C(=O)c2ccccc2C1=O,"inconclusive [inhibitor, single point]",–
COc1ccc(NS(=O)(=O)c2cccc(C(=O)N/N=C/c3cccs3)c2)cc1,"inconclusive [inhibitor, single point]",–
COC(=O)c1ccccc1NC(=O)/C=C/c1ccco1,active: 25.1 µM,–
Cc1ccc2nc3c(cc2c1)c(NC(=O)c1ccccn1)nn3CC(C)C,"inconclusive [inhibitor, partial curve]",–
CCOC(=O)C1CCCN(C(=O)c2ccc3c(c2)N(Cc2ccccc2)C(=O)c2ccccc2S3=O)C1 (centres undefined),active: 20 µM,–

SMILES,Potency,"activity, negative = inhibition"
COC(=O)c1ccc(OCCCCN2CC(C)OC(C)C2)cc1 (centres undefined),"inconclusive [inhibitor, partial curve]",–
Clc1ccc(OCCSc2ncccn2)c2ccccc12,"inconclusive [inhibitor, single point]",–
Cc1ccc2nc(C)/c(=N\O)c(C)nc2c1,inactive,–
COc1cccc(/C=N\NC(=O)c2sc(N)nc2C)c1OC,inactive,–
O=c1c(-c2ccccc2)nc2cnc(N3CCNCC3)nc2n1Cc1cccs1,"inconclusive [inhibitor, single point]",–
O=C(c1cc(-c2cccc(O)c2)on1)N1CCc2ccccc2C1,"inconclusive [inhibitor, single point]",–
Cc1cc(C)c(NC(=S)NCCCSC2CCCCC2)c(C)c1,"inconclusive [inhibitor, single point]",–
COc1cccc(C2=NOC(C(=O)NCc3ccc(F)cc3)C2)c1 (centres undefined),inactive,–
O=C(Nc1ccc(S(=O)(=O)NCc2cccnc2)cc1)c1ccco1,"inconclusive [inhibitor, single point]",–
O=c1cc(CSc2ccccc2)[nH]c(=S)[nH]1,active: 28.2 µM,–
Clc1ccccc1C(Nc1ncccn1)Nc1ncccn1,–,inactive: 7.54% [at 13.5 µM]
Cc1cc(N2CCN(C)CC2)nc2ccc(NC(=S)N3CCN(c4ccc(Cl)cc4)CC3)cc12,"inconclusive [inhibitor, single point]",–
COc1ccc(C(=O)Nc2cccc(C(=O)N3CCCC3)c2)cc1,"inconclusive [inhibitor, partial curve]",–
Cc1sc2nc(C3CC3)nc(SCC(=O)N3CCc4ccccc4C3)c2c1C,active: 14.1 µM,–
CN(C)S(=O)(=O)c1cccc(NC(=O)c2ccc(Sc3nncn3C)c([N+](=O)[O-])c2)c1,active: 0.562 µM,–
CCc1nnc(NS(=O)(=O)c2ccc(NS(=O)(=O)c3ccccc3)cc2)s1,inactive,–
C=CC1=C2C=C(C3CC3)N(Cc3ccco3)C=C2C(=O)C(C)(OC(=O)c2ccco2)C1=O (centres undefined),–,inactive: 0.0816% [at 13.5 µM]
COc1ccc2c(c1)c(=O)oc1c(C)c(OCC(=O)N3CCc4ccccc4C3)ccc12,"inconclusive [inhibitor, partial curve]",–
CCOC(=O)NCc1ccc(Cl)c(Cl)c1,inactive,–
CCOc1ccc(-n2c(-c3ccc(OC)cc3)c[n+]3c2CCCCC3)cc1,inactive,–
Cc1ccc(C)c(S(=O)(=O)N2CCC(c3nc4c(nnn4Cc4ccc(F)cc4)c(=O)[nH]3)CC2)c1,inactive,–
CCc1cc(=O)oc2c(C)c(O)c(CN(C)C)cc12,"inconclusive [inhibitor, partial curve]",–
COCCCN1CCc2[nH]c(=S)[nH]c(=O)c2C1,"inconclusive [inhibitor, single point]",–
O=C(Oc1cc2oc(=O)c3c(c2cc1Cl)CCCC3)c1cccs1,"inconclusive [inhibitor, partial curve]",–
